From PubChem BioAssay AID1345082 (National Center for Advancing Translational Sciences (NCATS), 2018)
Hit rate of the full screen: of about 94,000 compounds, about 4,000 (4.3%) were called active. Inconclusive results, whose numbers are uncertain, are shown with a selection of clear calls. The call rests on the fitted dose curve; in most records, active means well fitted inhibition curve with a large enough effect; inconclusive means small, poorly fitted or top-dose-only effect; inactive means no such curve, though single readings can be large or run the other way. Potencies of inconclusive entries are doubtful fits and often do not repeat.

Assay: Cytotoxic Profiling in NIH 3T3 Cell Line of Diverse Libraries Using Quantitative High-Throughput Screening; further: nearly all actives have a fitted effect of over 55% in size
Details: NIH 3T3 viability, CellTiter-Glo ATP luminescence, 48-72 h; series mostly up to 96.7 µM
Summary of the method: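 Mouse fibroblast NIH 3T3 cells, 400 per well, received compound via pintool and were incubated for 48 or 72 hr prior to CellTiter-Glo ATP luminescence measurement.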
Potency means the concentration at half of the fitted maximal effect; tags describe the fitted curve by direction and shape.

Structure (SMILES) | Potency
CN(Cc1cccnc1)c1nc2c(c(=O)[nH]1)CCN(Cc1ccc3[nH]ccc3c1)CC2 | inactive
COCC(=O)N1CCc2nc(-c3ccccc3)nc(-c3ccc(OC)cc3)c2C1 | inconclusive: 44.7 µM [inhibitor, partial curve, poor fit]
Cc1cccc(-c2cccc(CN3CCC(NC(=O)c4ccccc4F)CC3)c2)c1 | active: 39.8 µM
COc1ccccc1-c1cc(C(=O)NCCc2cnc[nH]2)c2c(c1)N(C)CCO2 | inconclusive: 89.1 µM [inhibitor, partial curve, poor fit]
Cn1cc(CN2C[C@H](C(=O)Nc3ccncn3)C[C@H]2c2cccc(C(F)(F)F)c2)cn1 | inconclusive: 56.2 µM [inhibitor, partial curve, poor fit]
COc1ccc(CC(=O)NC2CCN(c3cc(-c4ccc(Cl)cc4)[nH]n3)CC2)cc1 | inconclusive: 10 µM [inhibitor, full curve, poor fit]
CCC(=O)N(C1CCOCC1)C1CCN(S(=O)(=O)c2ccc(F)c(Cl)c2)CC1 | inconclusive: 56.2 µM [inhibitor, partial curve, poor fit]
Cc1cccc(OCCc2noc(C3CCN(C(=O)C4CCCC4)C3)n2)c1 (centres undefined) | inconclusive: 44.7 µM [inhibitor, partial curve, poor fit]
Cc1ccccc1-c1cc(C(=O)NCC[S+](C)(=O)[O-])c2c(c1)N(C)CCO2 | inconclusive: 89.1 µM [inhibitor, partial curve, poor fit]
O=C1CCC2(CCCO2)CCN1Cc1ccccc1C(F)(F)F (centres undefined) | inactive
O=C(NC1CCCN(c2cc(-c3ccccc3)[nH]n2)C1)c1ccccn1 (centres undefined) | inconclusive: 39.8 µM [inhibitor, partial curve, poor fit]
COc1cc(-c2noc(-c3nc(-c4ccc5c(c4)OCO5)no3)n2)cc(OC)c1OC | inactive
CCC(=O)Nc1ccc(C2(C(=O)N3CCC(N4CCCCC4)CC3)CCCCC2)cc1 | inactive
CCCNC(=O)NC[C@@H]1C=C(C)[C@H](Cc2nc3ccc(C(=O)OC)cc3[nH]2)C[C@H]1C(C)C | inconclusive: 89.1 µM [inhibitor, partial curve, poor fit]
CC(C)n1cc(CN2CCCC23CCN(c2ccc(C(F)(F)F)cn2)CC3)cn1 | inconclusive: 50.1 µM [inhibitor, partial curve, poor fit]
NCc1ccccc1-c1ccc(OC(F)(F)F)cc1 | inconclusive: 89.1 µM [inhibitor, partial curve, poor fit]
COc1ccccc1CC(=O)N1CCN(c2cc(-c3cccs3)[nH]n2)CC1 | inconclusive: 31.6 µM [inhibitor, full curve]
c1csc(-c2nc3nccc(-c4cc5ccccc5o4)n3n2)c1 | inactive
Cc1nnnn1CC(=O)Nc1nn(Cc2ccccc2)c2cccc(OC(C)C)c12 | inactive
CCCNC(=O)[C@@H]1Cc2cn(Cc3cccnc3)c3cccc(c23)[C@H](CC(C)C)N1 | active: 89.1 µM
CN(Cc1ccc(F)cc1)c1ccc2ncc(Nc3ccnc(N4CCOCC4)c3)n2n1 | inconclusive: 50.1 µM [inhibitor, partial curve, poor fit]
COCCn1cnc2ccc(-c3ccsc3)nc2c1=O | inconclusive: 100 µM [inhibitor, partial curve]

Structure (SMILES) | Potency
CN[C@@H](CC(C)C)C(=O)N[C@H]1CCN2C(=O)c3cc(-c4ccc(OC)cc4OC)ccc3NC(=O)[C@@H]2C1 | inconclusive: 79.4 µM [inhibitor, single point]
Cc1cnc(CC2CCCN(C(=O)C3CC3)C2)n1C(C)C (centres undefined) | inactive
NC(=O)[C@@H]1C[C@H](Oc2cccnc2)CN1S(=O)(=O)c1ccc2c(c1)OCCO2 | inactive
Cc1nn(-c2ccc(C(F)(F)F)cc2)c(C)c1[C@@H]1C=C[C@@H](NS(=O)(=O)c2cccs2)C1 | inconclusive: 35.5 µM [inhibitor, partial curve, poor fit]
CC(C)CN1C(=O)c2ccccc2C(C(=O)Nc2nccs2)C12CCCC2 (centres undefined) | inconclusive: 70.8 µM [inhibitor, single point]
Cc1ccc(CN2CCCCCNC(=O)CC2c2ccccc2)o1 (centres undefined) | inconclusive: 50.1 µM [inhibitor, partial curve, poor fit]
O=C(c1ccc2oc(-c3ccc(C(F)(F)F)cc3)nc2c1)N1CCOCC1 | inconclusive: 50.1 µM [inhibitor, single point]
C=CCOc1c(OC)ccc2c1CN(CC1CC1)C(=O)CCN2CC(O)COc1ccc(OC)cc1 (centres undefined) | inconclusive: 50.1 µM [inhibitor, partial curve, poor fit]
COc1cccc(CCC(=O)N2CCCN(C)c3ccccc32)c1 | inconclusive: 35.5 µM [inhibitor, partial curve]
CC1=C[C@@H](CNC(=O)c2ccccc2)[C@H](C(C)C)C[C@H]1Cc1nc2ccncc2[nH]1 | inconclusive: 79.4 µM [inhibitor, partial curve, poor fit]
CNC(=O)c1cc(-c2ccccc2O)cc2c1OCCN2Cc1cccnc1 | inconclusive: 89.1 µM [inhibitor, single point]
Cn1cccc1CNC(=O)C1c2ccccc2C(=O)N(Cc2ccccc2)C12CCCC2 (centres undefined) | inactive
Cc1ccc(-c2cc(C(=O)N3CCC(Cc4nncn4CC4CC4)CC3)c3ccccc3n2)cc1C | active: 20 µM
Cc1cc(-c2ccnc(-c3nnc(C)n3CCN3CCOCC3)c2)ccn1 | active: 89.1 µM
COc1ccc(-c2nc(C3CC3)nc3c2CCN(Cc2ccc(C(F)(F)F)cc2)CC3)cc1 | inconclusive: 50.1 µM [inhibitor, single point]
COC(=O)[C@@H]1Cc2ncn(Cc3ccc(OC)cc3)c2CN1C(=O)C1CCCCC1 | inconclusive: 100 µM [inhibitor, single point]
O=C1CCN(CC(O)Cc2ccccc2)c2ccc(F)cc2CN1CC1CC1 (centres undefined) | inconclusive: 50.1 µM [inhibitor, partial curve, poor fit]
CCCCSc1nc(N)cc(N2CCCC(C(=O)N3CCOCC3)C2)n1 (centres undefined) | inconclusive: 79.4 µM [inhibitor, partial curve, poor fit]
Cc1nc(N2CCC(C(=O)Nc3ccc(F)c(Cl)c3)CC2)cc(C(F)(F)F)n1 | inconclusive: 12.6 µM [inhibitor, full curve, poor fit]
COc1ccc(-c2cc(C[C@H]3CNCC[C@H]3CC(=O)N3CCCCC3)no2)cc1 | inconclusive: 126 µM [inhibitor, single point]
CC1(C)C[C@H](NC(=O)c2cccc(F)c2)[C@@]2(CCC(=O)NCc3ccco3)CC[C@](C)(O)C[C@@H]12 | inconclusive: 50.1 µM [inhibitor, partial curve, poor fit]
O=C(c1nc2cccnc2n(CCc2ccccc2)c1=O)N1CCN(C(=O)C2CCCC2)CC1 | inactive

Structure (SMILES) | Potency
CCOc1ccccc1NC(=O)C1CC(=O)N(c2n[nH]c3ccccc23)C1 (centres undefined) | inconclusive: 70.8 µM [inhibitor, single point]
c1ccc2c(c1)CCN(Cc1ccc3c(c1)CNCCO3)C2 | inactive
Cc1ccccc1NC(=O)CN1C(=O)NC(c2ccccc2Cl)C2=C1COC2=O (centres undefined) | inactive
O=C(c1cc(=O)[nH]c(=O)[nH]1)N1CCc2[nH]nc(-c3ccc(F)c(F)c3)c2C1 | inconclusive: 89.1 µM [inhibitor, partial curve, poor fit]
CN1c2cc(C(=O)N3CCN(c4ccc(F)cc4)CC3)ccc2C(=O)N2CCCCCC21 (centres undefined) | inconclusive: 39.8 µM [inhibitor, partial curve, poor fit]
FC(F)(F)c1cccc(-c2cc(-c3cccnc3)c3cncn3c2)c1 | inconclusive: 20 µM [inhibitor, partial curve, poor fit]
COc1cccc(CNC(=O)c2nc3sccn3c2-c2cccc(OC)c2)c1 | inconclusive: 50.1 µM [inhibitor, partial curve, poor fit]
CC(C)(C)c1ncc(-c2ccccc2)[nH]1 | inactive
CSc1ccc(-c2cccc(C(=O)NCC(=O)NC(C)C)c2)cc1 | inconclusive: 100 µM [inhibitor, single point]
O=C(NC1CCCC1)C1CCN(C(=O)c2ccc(-c3cccs3)cc2)CC1 | inconclusive: 50.1 µM [inhibitor, partial curve, poor fit]
O=C(CN1C(=O)NC2(CCCCC2)C1=O)Nc1ccc2c(c1)CCC2 | inconclusive: 39.8 µM [inhibitor, partial curve, poor fit]
CN1C(=O)C(CC(=O)NCc2cccs2)Sc2ncccc21 (centres undefined) | inactive
Cc1ccc(C(=O)N2CCC(Oc3ccc(C(N)=O)cn3)CC2)cc1C | inconclusive: 17.8 µM [inhibitor, full curve]
N#Cc1cccnc1Oc1ccccc1CN1CCCCC1 | inactive
COc1cccc(-c2cc(C(=O)NCCc3ccc(F)cc3)c3cnn(C)c3n2)c1 | inactive
COc1cccc(-c2cccc(C(=O)N3CCN(C(=O)Cc4ccccn4)CC3)c2)c1 | inactive
CC1CCN(C(=O)Cn2ccn3nc(-c4ccc(F)cc4)c(CO)c3c2=O)CC1 | inactive
CC(=O)N1CCC(c2nnc3n2C(C(=O)NCc2ccc(F)c(F)c2)CC3)CC1 (centres undefined) | inactive
O=C(NCCN[S+](=O)([O-])c1ccccc1)c1cccc(-c2ccsc2)c1 | inconclusive: 44.7 µM [inhibitor, partial curve, poor fit]
CN1CCN(Cc2cnn(-c3cccc(Cl)c3)c2)CC1CCO (centres undefined) | inconclusive: 50.1 µM [inhibitor, partial curve, poor fit]
